Test results from patent publication US20230065562A1, “DUAL CONTROLS FOR THERAPEUTIC CELL ACTIVATION OR ELIMINATION” (Bellicum Pharmaceuticals, Inc., priority 2015, published 2023).
Positions count from the first letter of the chain named. Names may count otherwise.

Tested on: HEK293T/16 cells
Assay: Secreted alkaline phosphatase (SEAP)-based surrogate killing assay of iCasp9 mutants
Assay type: cell-based, human
Details: for Basal Activity (relative to wild type/unmodified Caspase-9): SEAP assay without AP1903
Method: Early passage HEK293T/16 cells (ATCC, Manassas, Va.) were maintained in IMDM, GlutaMAX™ (Life Technologies, Carlsbad, Calif.) supplemented with 10% FBS, 100 U/mL penicillin, and 100 […] until transfection in a humidified, 37° C., 5% CO2/95% air atmosphere. Cells in logarithmic-phase growth were transiently transfected with 800 ng to 2 μg of expression plasmid encoding iCasp9 mutants and 500 ng of an expression plasmid encoding SRα promoter driven SEAP per million cells in 15-mL conical tubes. […] GeneJammer® Transfection Reagent at a ratio of 3 μl per ug of plasmid DNA was used to transiently transfect HEK293T/16 cells in the absence of antibiotics. 100 μl or 2 mL of the transfection mixture was added to each well in 96-well or 6-well plate, respectively.
Briefly, after 65° C. heat denaturation for 45 minutes to reduce background caused by endogenous (and serum-derived) alkaline phosphatases that are sensitive to heat, 5 μl of supernatants was added to 95 μl of PBS and added to 100 μl of substrate buffer, containing 1 μl of 100 mM 4-methylumbelliferyl phosphate (4-MUP; Sigma, St. Louis, Mo.) re-suspended in 2 M diethanolamine. Hydrolysis of 4-MUP by SEAP produces a fluorescent […] with excitation/emission (355/460 nm), which can be easily measured. Assays were performed in black opaque 96-well plates to minimize fluorescence leakage between wells. […] of the mixture was seeded onto each well of a 96-well plate. […] For the assay, 4-methylumbelliferyl phosphate substrate was hydrolyzed by SEAP to 4-methylumbelliferon, a metabolite that can be excited with 364 nm and detected with an emission filter of 448 nm. Since SEAP is used as a marker for cell viability, reduced SEAP reading corresponds with increased iCaspase-9 activities.

B1: N405Q-T317Sco: codon-optimized double mutant, class predicted (protein, UniProt P55211 1-416, looked up, variant N405Q T317S)
chain: MDEADRRLLRRCRLRLVEELQVDQLWDALLSRELFRPHMIEDIQRAGSGSRRDQARQLIIDLETRGSQALPLFISCLEDTGQDMLASFLRTNRQAAKLSKPTLENLTPVVLRPEIRKPEVLRPETPRPVDIGSGGFGDVGALESLRGNADLAYILSMEPCGHCLIINNVNFCRESGLRTRTGSNIDCEKLRRRFSSLHFMVEVKGDLTAKKMVLALLELAQQDHGALDCCVVVILSHGCQASHLQFPGAVYGTDGCPVSVEKIVNIFNGTSCPSLGGKPKLFFIQACGGEQKDHGFEVASTSPEDESPGSNPEPDASPFQEGLRTFDQLDAISSLPTPSDIFVSYSTFPGFVSWRDPKSGSWYVETLDDIFEQWAHSEDLQSLLLRVANAVSVKGIYKQMPGCFQFLRKKLFFKTS
modifications: FKBP12-F36V fusion (iCasp9), codon-optimized
notes: codon-optimized double mutant, class predicted
For B1, the “Basal Activity (relative to wild type), predicted mutants (*)” value (marked '*, predicated') was “Decreased”.

B2: N405Q-T317S: modified iCasp9 double mutant (protein)
chain: VDGFGDVGALESLRGNADLAYILSMEPCGHCLIINNVNFCRESGLRTRTGSNIDCEKLRRRFSSLHFMVEVKGDLTAKKMVLALLELARQDHGALDCCVVVILSHGCQASHLQFPGAVYGTDGCPVSVEKIVNIFNGTSCPSLGGKPKLFFIQACGGEQKDHGFEVASTSPEDESPGSNPEPDASPFQEGLRTFDQLDAISSLPTPSDIFVSYSTFPGFVSWRDPKSGSWYVETLDDIFEQWAHSEDLQSLLLRVANAVSVKGIYKQMPGCFQFLRKKLFFKTSASRA
B2 was tested, and the “Basal Activity (relative to wild type/unmodified Caspase-9)” value was “Decreased”.

B3: T317S: modified iCasp9, T317S (protein)
chain: B2 chain with Q273N
For B3, the “Basal Activity (relative to wild type/unmodified Caspase-9)” value (listed as T3175) was “Decreased”.
